# The list shows a part of the results. At the low end of the ranking the order means little.
# Molecular target: SIX1-Q177R homeodomain (UniProt Q15475)
# Assay: universal protein binding microarray
# Settings: Universal all-10-mer PBM (8x60K, AMADID 030236), 300 nM GST-tagged protein, Alexa Fluor 488 anti-GST; buffer, salt, pH and temperature not stated; high values mean tight binding; most listed sequences are background and not binding sites; double strand, one strand shown
row,Sequence,binding signal [E-score]
1,CAGCTATG,-0.258
2,CGATCCCG,0.115
3,AAATATAA,-0.0248
4,CTAATTTA,-0.207
5,ACACCTCG,0.453
6,ATCCGCGA,-0.129
7,AGCTTACC,-0.181
8,AAGGTAGC,-0.0391
9,GGCGCTAC,-0.223
10,GTTCCGTA,0.188
11,GGATGCCA,-0.0544
12,CTCCCCCC,0.0235
13,GGCAGTCA,-0.222
14,TGAACCAA,0.0123
15,ACCTGGTA,0.083
16,CCCAGTAC,0.144
17,ACACACCC,0.39
18,AGAAAATG,-0.211
19,CAATCCTA,-0.249
20,ACCTGCAC,0.121
21,AATTGCAA,-0.345
22,TCGACGAA,-0.0112

row,Sequence,binding signal [E-score]
1,ATTACAAA,-0.351
2,GGCTGAAA,-0.143
3,CGGAAAAC,-0.0631
4,AAAAGCCC,-0.24
5,GATAGGAA,-0.0843
6,ATGCATTG,-0.0781
7,GGCCACCA,-0.0538
8,CTATACAC,0.379
9,CGGTAGAC,-0.0105
10,AATCTCGG,-0.0614
11,CACTGACA,0.28
12,AGATCCAG,0.0405
13,ATTCGAGA,-0.0138
14,ACTAGTGA,0.0644
15,AACCGTAA,-0.153
16,GATAGTTA,-0.0408
17,CATCAGAG,0.0727
18,CTCGAACA,0.0522
19,CCGGTTTC,-0.0619
20,CTATGCGC,-0.134
21,CTTACAAC,-0.0585
22,ACTCAATA,0.12

row,Sequence,binding signal [E-score]
1,ATCTTGAA,-0.265
2,GAGTAATA,0.141
3,ACGTTTAA,-0.323
4,CGCATAAA,-0.0365
5,ATAAACAG,-0.0724
6,CCTTACTC,0.0444
7,AGCAGCGG,0.0613
8,TAGTTGCA,0.0297
9,CGAAAGCA,-0.119
10,AAGGGTCC,0.037
11,GGTCCACA,0.17
12,GTTCCCGA,-0.138
13,CTGACACA,0.297
14,CAGCCGCG,-0.0345
15,ACGCTTAA,-0.152
16,AACATACC,0.0978
17,TATGTCAA,-0.0378
18,AAGTTTTG,0.107
19,ACGAAATA,-0.0357
20,ATAGAAGC,-0.171
21,ATCGAATC,-0.0584
22,TAAATAGA,-0.16

row,Sequence,binding signal [E-score]
1,TCAGCTGA,-0.00855
2,TACCGCTA,0.138
3,AACCCAGA,0.214
4,CCATTTAG,-0.0186
5,AGTAAAGA,-0.255
6,TAGATAGA,-0.00407
7,GACTCCTA,0.215
8,CCCGTGCC,0.0493
9,CAGTCGCA,-0.166
10,CATTGGTC,-0.192
11,ATTCGATC,-0.0582
12,CCAATAGG,0.126
13,ACTGTCAC,-0.0469
14,ATTGTAGA,-0.183
15,TCTAGCAA,0.018
16,TCTACTAA,0.00987
17,GAAATCCA,-0.0993
18,AGCTCCTA,-0.225
19,AGGAACCC,0.107
20,AGAACTCC,0.0866

# Reference: article PMC10668032
